PubChem BioAssay AID504466 (National Center for Advancing Translational Sciences (NCATS), 2011)
The campaign covered roughly 330,000 compounds. About 4,200 (1.3%) were called active. The shares of active, inactive and inconclusive entries below differ from those in the screen. Calls follow the shape of the dose curve; as a rule, active = well fitted activation curve with a large enough effect; inconclusive = small, poorly fitted or top-dose-only effect; inactive = no such curve, though single readings can be large or run the other way. Potencies beside an inconclusive call are fits to weak or partial responses and may not hold up.

Assay: qHTS screen for small molecules that induce genotoxicity in human embryonic kidney (HEK293T) cells expressing luciferase-tagged ELG1; also: nearly all actives have a fitted effect of over 60% in size
Settings: HEK293T ELG1-luciferase reporter, luminescence, 16 h; series mostly up to 46 µM
Outline: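 Step 1: seed 2,000 HEK293T ELG1-luciferase cells per well. Step 2: add compound or DMSO, incubate 16 hr at 37 °C. Step 3: ONE-Glo, 30 min at room temperature, read luminescence.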
Potency is read from the fitted curve at half-maximal effect; tags tell the direction and shape of the fitted curve.

Row | Structure (SMILES) | Potency
1 | CC(C)(C)NC(=O)NC(=O)COc1ccc(Br)cc1Br | active: 2.06 µM
2 | COc1cc(NC(=O)CCn2c(=S)oc3ccccc32)cc(OC)c1OC | inconclusive: 32.6 µM [activator, partial curve, poor fit]
3 | C=C1C(C(=O)Nc2ccccc2)C1C(=O)Nc1ccccc1 (centres undefined) | inactive
4 | Cc1cc(NC(=O)c2cccc(Oc3ccccc3)c2)n[nH]1 | inconclusive: 4.61 µM [activator, partial curve]
5 | Oc1ccc(Br)cc1-c1cc(-c2ccccc2F)[nH]n1 | inactive
6 | c1ccc(OCCSc2nnnn2C2CCCCC2)cc1 | inconclusive: 2.59 µM [activator, full curve]
7 | Cc1ccc(NC(=O)c2ccc(S(=O)(=O)NCc3ccco3)cc2)cc1 | inconclusive: 23.1 µM [activator, partial curve, poor fit]
8 | NS(=O)(=O)c1ccc(CNC(=O)/C=C/c2cccc([N+](=O)[O-])c2)cc1 | inactive
9 | CCOC(=O)C(C#N)c1ccccn1 (centres undefined) | inconclusive: 23.1 µM [activator, single point]
10 | c1csc(Cc2nc3ccccc3[nH]2)c1 | inconclusive: 23.1 µM [activator, partial curve, poor fit]
11 | COc1ccc(C(=O)Nc2ccc(N3CCN(C)CC3)cc2)cc1OC | inconclusive: 20.6 µM [activator, partial curve, poor fit]
12 | O=P1(O)C=C(c2ccccc2)OC(c2ccccc2)=C1 | inconclusive: 29.1 µM [activator, single point]
13 | COc1cc(NC(=O)Cn2cnc3c(NCc4ccccc4)ncnc32)cc(OC)c1OC | inconclusive: 5.8 µM [activator, full curve, poor fit]
14 | COc1ccc(CCC(=O)Nc2cccc(S(=O)(=O)N(C)C)c2)cc1OC | inactive
15 | Cc1cc(C(F)F)n2nc(C(=O)Nc3ccccc3Br)nc2n1 | inconclusive: 23.1 µM [activator, partial curve, poor fit]
16 | Cc1ccc(CS(=O)(=O)Cc2ccc(C(=O)NC3CCCC3)o2)cc1 | inactive
17 | Cc1sc2ncnc(N3CCC(C(=O)N(CC(C)C)c4nc5ccccc5s4)CC3)c2c1C | inconclusive: 16.4 µM [activator, single point]
18 | COc1ccccc1C(CNC(=O)c1oc2ccccc2c1C)N1CCCC1 (centres undefined) | inactive
19 | Cc1ccccc1C(=O)NCCOc1ccccc1Cl | active: 5.8 µM
20 | Brc1c(CSc2nc3ccccc3s2)nc2ncccn12 | inconclusive: 18.4 µM [activator, partial curve]
21 | N/C(=N\OC(=O)c1cccs1)c1cccnc1 | inconclusive: 8.2 µM [activator, partial curve, poor fit]
22 | Cc1cc(C)n(C(=O)c2cc3sccc3[nH]2)n1 | inconclusive: 29.1 µM [activator, partial curve, poor fit]
23 | CCCc1cc(C(=O)Nc2ccc(CC)cc2)no1 | inconclusive: 2.06 µM [activator, full curve, poor fit]
24 | CNC(=O)c1c(NC(=O)c2cccc(C)c2)sc2c1CCC2 | inconclusive: 16.4 µM [activator, partial curve, poor fit]
25 | NNC(=O)CN(CCc1ccccc1)S(=O)(=O)c1ccc(Cl)cc1 | inactive

Row | Structure (SMILES) | Potency
26 | CC(=O)N1CCN(S(=O)(=O)c2cccc(C(=O)Nc3ccc(C)cn3)c2)CC1 | inconclusive: 20.6 µM [activator, partial curve, poor fit]
27 | O=C(COc1ccc(/C=N/NS(=O)(=O)c2ccccc2)cc1)Nc1ccccc1 | inconclusive: 23.1 µM [activator, single point]
28 | CC(=O)Nc1ccccc1C(=O)C(=O)Nc1ccc(Cl)cc1 | inconclusive: 20.6 µM [activator, partial curve, poor fit]
29 | CCc1nc(SCC(=O)NCc2ccco2)c2c3c(sc2n1)CCCC3 | inconclusive: 14.6 µM [activator, partial curve, poor fit]
30 | CCOC(=O)C1=C(O)/C(=C/c2ccc(CNC(=O)C(=O)Nc3ccc(C)cc3)o2)N=C1C | inconclusive: 29.1 µM [activator, partial curve, poor fit]
31 | Cc1cc(C)c2c(c1)/C(=N/Nc1ccc(S(N)(=O)=O)cc1[N+](=O)[O-])CCC2 | inconclusive: 29.1 µM [activator, single point]
32 | CC(=O)c1cnc2cc(-c3cccc(Br)c3)nn2c1C | inactive
33 | COCc1cc(C)nc2oc(C(=O)c3ccccc3)c(N)c12 | inactive
34 | COCCn1c(SCC(=O)NC2CCCC2)nc2c(c1=O)SCC2 | inactive
35 | COc1ccc(CCC(=O)Nc2sccc2C#N)cc1 | active: 6.51 µM
36 | CCOC(=O)c1c(NC(=S)NC(C)=O)sc(C)c1C | inactive
37 | Cc1ccc(Nc2cccccc2=O)cc1 | inconclusive: 8.2 µM [activator, single point]
38 | COc1ccc(OCC(=O)Nc2cccc(C(C)=O)c2)cc1 | inactive
39 | Cc1cc(Cl)ccc1NC(=O)C1COc2ccccc2O1 (centres undefined) | inconclusive: 20.6 µM [activator, partial curve, poor fit]
40 | O=C(N/N=C\c1cccc(OC(=O)c2ccco2)c1)c1ccc2c(c1)OCO2 | active: 14.6 µM
41 | Cc1c(C(=O)Nc2cccc([N+](=O)[O-])c2)cnn1-c1ccccc1 | inconclusive: 9.2 µM [activator, partial curve]
42 | COc1ccc2nc(NC3=NCCC3)sc2c1 | inconclusive: 11.6 µM [activator, partial curve, poor fit]
43 | O=C(Nc1nnc(-c2ccc(F)cc2)s1)c1ccco1 | inconclusive: 9.2 µM [activator, partial curve]
44 | CCc1ccc(NC(=S)N2CCCCCCC2)cc1 | inconclusive: 20.6 µM [activator, single point]
45 | COc1cc(OC)cc(C(=O)N[C@H](C(=O)OCC(=O)Nc2ccc3c(c2)OCO3)C(C)C)c1 | inactive
46 | CCNC(=O)C(=O)Nc1cc2c3c(c1)CCN3C(=O)CC2 | inconclusive: 18.3 µM [activator, partial curve, poor fit]
47 | COc1ccc(N2CCN(C(=O)Nc3cccc(C(F)(F)F)c3)CC2)cc1 | inactive
48 | Cc1cc(/C=N/NC(=O)c2cccs2)c(C)n1-c1cnccn1 | active: 7.3 µM
49 | O=C(CN1C(=O)c2cccc3cccc(c23)C1=O)N1CCN(c2ccccn2)CC1 | inconclusive: 29.1 µM [activator, partial curve, poor fit]
50 | O=c1c2c3c(sc2nc2n1CCCCC2)CCC3 | inconclusive: 16.4 µM [activator, partial curve, poor fit]

Row | Structure (SMILES) | Potency
51 | CCn1cc(C(=O)N(C)Cc2ccc(OC(F)F)cc2)c(=O)c2ccc(C)nc21 | inactive
52 | CCOC(=O)c1ccc(Nc2ncnc3nc[nH]c23)cc1 | inconclusive: 14.6 µM [activator, partial curve, poor fit]
53 | CC1CN(C(=O)c2ccc(-c3ccccc3Cl)o2)CC(C)O1 (centres undefined) | inactive
54 | CCCOC(=O)c1ccc(NC(=O)CN(C)Cc2cccs2)cc1 | inactive
55 | O=Cc1ccc(OC2OCCOC2Oc2ccc(C=O)cc2)cc1 (centres undefined) | inactive
56 | COc1cccc(NC(=O)CCNC(=O)Cn2ccc3ccccc3c2=O)c1 | inactive
57 | O=C(Nc1nc2c(s1)CCCC2)c1ccc(Br)s1 | inconclusive: 2.06 µM [activator, partial curve]
58 | N#Cc1nc(-c2ccccc2)oc1NCc1ccco1 | inconclusive: 16.4 µM [activator, partial curve]
59 | CCCCN(C)C(=O)c1cc2c(s1)-c1ccccc1S(=O)(=O)C2 | inactive
60 | CC(C)(C)c1ccc(-c2noc(CCC(=O)N3CCOCC3)n2)cc1 | inconclusive: 4.11 µM [activator, partial curve, poor fit]
61 | CN(C)/C=C/c1onc(-c2ccccc2Cl)c1C#N | inconclusive: 11.2 µM [activator, partial curve, poor fit]
62 | CCN(CC)S(=O)(=O)c1cccc(-c2cn3cc(C)ccc3n2)c1 | inconclusive: 7.31 µM [activator, partial curve, poor fit]
63 | CC1C(=O)N2CCCc3cc(NS(=O)(=O)c4ccc(F)cc4)cc1c32 (centres undefined) | inconclusive: 20.6 µM [activator, partial curve, poor fit]
64 | CCCn1nnc(NC(=O)c2ccc(Br)cc2)n1 | active: 9.2 µM
65 | Cc1nn(-c2cccc([N+](=O)[O-])c2)c(N)c1-c1ccccc1 | inactive
66 | CC1(C(=O)Nc2nc3ccccc3s2)CC1(Br)Br (centres undefined) | inconclusive: 18.3 µM [activator, partial curve, poor fit]
67 | c1ccc(-c2nnc(OCC3CCCO3)c3ccccc23)cc1 (centres undefined) | inactive
68 | Cc1occc1C(=O)N/N=C/C=C/c1ccccc1 | inconclusive: 18.3 µM [activator, partial curve, poor fit]
69 | Cc1ccc(NC(=O)CCCc2ccccc2)c([N+](=O)[O-])c1 | inconclusive: 14.6 µM [activator, partial curve, poor fit]
70 | O=C(Nc1cccc(F)c1)NC1CCCCCCC1 | inconclusive: 6.51 µM [activator, partial curve, poor fit]
71 | CC(C)CN(C(=O)C1CC1)C1CCS(=O)(=O)C1 (centres undefined) | inactive
72 | CCOC(=O)COc1ccc(/C=C2/C(=O)NN(c3ccc(F)cc3)C2=O)cc1OC | inactive
73 | Cc1ccc(-c2cc(C(=O)NCC(c3ccccc3)N(C)C)c3ccccc3n2)o1 (centres undefined) | inactive
74 | COc1cccc(NC(=O)c2ccc(NC(=O)C(C)C)cc2)c1 | inconclusive: 20.6 µM [activator, partial curve, poor fit]
